The campaign covered roughly 310,000 compounds. About 2,200 (0.71%) showed an effect of 50% or more. Effects have a minus sign here. The list shows a part of the results.
target: human ether-à-go-go-related gene (hERG) potassium channel (human, UniProt Q12809); test: primary screen, population patch clamp on CHO cells stably expressing hERG
Sequence (Q12809 whole entry, looked up): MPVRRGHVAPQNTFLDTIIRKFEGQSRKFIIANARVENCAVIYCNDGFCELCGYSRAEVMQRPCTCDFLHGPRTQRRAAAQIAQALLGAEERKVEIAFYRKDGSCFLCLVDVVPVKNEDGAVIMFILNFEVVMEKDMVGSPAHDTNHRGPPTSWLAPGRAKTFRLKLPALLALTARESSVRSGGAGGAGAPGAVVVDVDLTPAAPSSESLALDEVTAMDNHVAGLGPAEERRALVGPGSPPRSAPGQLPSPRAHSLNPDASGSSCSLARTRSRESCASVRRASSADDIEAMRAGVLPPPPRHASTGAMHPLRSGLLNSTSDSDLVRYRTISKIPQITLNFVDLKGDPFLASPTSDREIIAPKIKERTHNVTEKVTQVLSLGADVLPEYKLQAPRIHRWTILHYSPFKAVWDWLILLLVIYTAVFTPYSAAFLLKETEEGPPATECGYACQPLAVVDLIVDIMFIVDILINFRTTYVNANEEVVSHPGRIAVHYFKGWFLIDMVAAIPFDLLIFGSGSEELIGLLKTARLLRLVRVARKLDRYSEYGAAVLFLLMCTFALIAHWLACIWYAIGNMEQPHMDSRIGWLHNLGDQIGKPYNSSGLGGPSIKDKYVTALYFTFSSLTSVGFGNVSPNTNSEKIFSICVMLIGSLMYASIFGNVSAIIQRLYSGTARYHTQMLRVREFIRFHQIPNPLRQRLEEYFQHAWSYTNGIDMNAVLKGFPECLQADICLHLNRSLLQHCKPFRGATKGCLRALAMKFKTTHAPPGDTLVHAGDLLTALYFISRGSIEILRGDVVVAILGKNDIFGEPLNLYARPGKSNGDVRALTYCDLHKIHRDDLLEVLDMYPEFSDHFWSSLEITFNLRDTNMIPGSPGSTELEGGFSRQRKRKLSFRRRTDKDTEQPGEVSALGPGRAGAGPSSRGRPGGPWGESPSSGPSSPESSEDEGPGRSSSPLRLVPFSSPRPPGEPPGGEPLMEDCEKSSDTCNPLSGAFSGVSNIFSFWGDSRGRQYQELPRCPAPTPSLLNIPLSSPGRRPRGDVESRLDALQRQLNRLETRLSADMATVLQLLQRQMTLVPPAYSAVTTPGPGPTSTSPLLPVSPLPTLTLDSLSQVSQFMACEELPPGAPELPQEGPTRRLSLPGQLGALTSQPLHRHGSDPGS

Row | SMILES | hERG current change (%, negative = inhibition) at 1uM [%]
1 | CC(C)(C)NC(=O)CSc1nnc(-c2ccccn2)n1-c1ccccc1 | 12.5
2 | COc1ccccc1NC(=O)C(=O)c1cn(CC(=O)N2CCCC2)c2ccccc12 | 10.1
3 | CC(C)NC(=O)C(=O)NCCCOC(C)C | 10.3
4 | O=c1c2ccccc2ncn1-c1ccc(Cl)cc1[N+](=O)[O-] | -0.835
5 | Cc1nc(NC(=O)c2ccccc2)sc1-c1csc(NCCc2ccccc2)n1 | 8.09
6 | CCCOc1ccc(-c2c(C(=O)N/N=C/C3CCCCC3)nnn2-c2nonc2N)cc1 | 11.7
7 | O=C(Oc1coc(CSc2ncccn2)cc1=O)c1cccc([N+](=O)[O-])c1 | -26.4
8 | COc1ccc2c(=O)c(C(=O)NCc3ccccc3)c[nH]c2c1 | 13.3
9 | CCOc1cc(NC(=S)NCCCOC)c(OCC)cc1NC(=O)c1ccco1 | 9.6
10 | COc1ccc(CNC(=O)Cn2cc3c(n2)CCCCC3)cc1 | 5.98
11 | O=C(Cc1ccccc1)Nc1ccc(NC(=O)C2CCCCC2)nc1 | -9.25
12 | Cc1cccc(N2C(=O)C(Cc3ccccc3)NC2=S)c1 (stereo not drawn) | 2.4
13 | O=C(O)c1cc(S(=O)(=O)N2CCOCC2)c[nH]1 | 3.31
14 | O=C(O)C1CCC(CNS(=O)(=O)c2ccc(Br)cc2)CC1 (stereo not drawn) | 12.8
15 | COC(CNC(=S)Nc1ccc([N+](=O)[O-])cc1)OC | 7.2
16 | COc1ccc(Cc2noc(-c3ccc(OC)c(OC)c3)n2)cc1OC | 2.98
17 | O=C(CSc1nnc(-c2ccncc2)o1)Nc1cccc(F)c1 | 8
18 | COc1ccc(Cl)cc1NC(=S)N1CCN(C(=O)c2ccco2)CC1 | 6.99
19 | O=C(NCC(c1ccco1)N1CCOCC1)c1ccc(F)c(F)c1 (stereo not drawn) | 5.36
20 | O=C(NC(=S)Nc1cccc2cccnc12)c1ccccc1 | 14.9
21 | CCN(CC)S(=O)(=O)c1ccc(-c2nnc(SCC(=O)Nc3nnc(C)s3)n2CC)cc1 | 14
22 | O=C1c2ccccc2C(=O)C1c1ccc(Cl)cc1 | 1.34
23 | CCC(=O)Nc1ccc(N2CCN(CC)CC2)c(Cl)c1 | 8.56

Row | SMILES | hERG current change (%, negative = inhibition) at 1uM [%]
24 | COc1ccc(-c2[nH]ncc2CNC(C)c2cn(C)nc2C)c(F)c1 (stereo not drawn) | 10.2
25 | COc1ccc(C(c2nnnn2Cc2cccs2)N2CCN(c3ccccc3F)CC2)cc1OC.Cl (stereo not drawn) | -3.85
26 | COc1ccccc1N1CCN(c2ccnc3cc(Cl)ccc23)CC1 | 7.78
27 | COc1ccc(C2SCCN2S(=O)(=O)c2ccc(NC(C)=O)cc2)cc1OC (stereo not drawn) | 5.42
28 | COc1ccc(CC(=O)NNC(=O)c2ccc(NC(C)=O)cc2)cc1 | 15.4
29 | O=C(c1nnc(-c2ccccc2)o1)C1CC1 | 13.4
30 | O=C(Nc1c(-c2ccccc2)nc2sccn12)c1ccccc1 | 10.4
31 | CCOC(=O)Cc1csc(NC(=O)c2ccc(NC(C)=O)cc2)n1 | 10.4
32 | O=C1CN(C(=O)c2cc([N+](=O)[O-])ccc2Cl)C(c2ccc(F)cc2)c2cc(F)ccc2N1 (stereo not drawn) | -4.16
33 | Cc1cc(C)c2c(N)c(C(=O)NN3CC(=O)N(c4ccccc4F)CC3=O)sc2n1 | 6.81
34 | Cc1ccc(CN2CCN(Cc3cnc(N(C)C)s3)CC2CCO)o1 (stereo not drawn) | 11.2
35 | Cc1cc(-n2c(C)cc(C(=O)COc3ccc4ccc(=O)oc4c3)c2C)no1 | 11.9
36 | CC(C)(C)c1ccc(C(=O)CSc2n[nH]c(=O)[nH]c2=O)cc1 | 11.5
37 | COCCNC(=S)Nc1cc2oc3ccccc3c2cc1OC | 11.2
38 | COc1cccc(CNC(=O)C2Cc3cc(S(=O)(=O)N4CCCC4)ccc3N2C(C)=O)c1OC (stereo not drawn) | 1.37
39 | Nc1ccc(-c2nc3c(Cl)c(N)ccc3[nH]2)cc1 | 3.01
40 | COc1ccc(S(=O)(=O)N2CCN(Cc3cccc(F)c3)CC2)cc1 | 14.2
41 | CCC(=O)N1CCc2cc(S(=O)(=O)NC(C(=O)NC(C)c3ccccc3)C(C)C)ccc21 (stereo not drawn) | 14.8
42 | CCc1ccccc1NC(=O)c1cc(C)no1 | 14.3
43 | COc1ccc(-c2nsc3c(N4CCCCC4C)ncnc23)cc1 (stereo not drawn) | 6
44 | CCCCOC(=O)Nc1sc2nc(C)cc(C)c2c1-n1cccc1 | 9.04
45 | O=C(NCCCO)C(=O)Nc1ccc2c(c1)N(S(=O)(=O)c1cccs1)CCC2 | 7.02

Source: paper PMC4336329 (PLoS ONE, 2015)
